In all, about 33,000 sequences were measured (“E-score (-0.5 to 0.5)”: median about -0.056, highest 2% from about 0.38 on). This is one part of the list.
The sequences below were run against Stb4 (UniProt P50104) (assay: PBM E-score (8-mer binding enrichment) (E-score (-0.5 to 0.5)); higher = stronger / more preferred TF binding; most listed sequences are background and not binding sites). Details: protein concentration: 200 nM; construct: GST-DNA-binding domain.
How it was run: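 GST-tagged yeast TFs (full-length or DNA-binding domain) were made by PURExpress in vitro transcription/translation and applied at about 100-200 nM to universal all-10-mer Agilent arrays. The arrays were made double-stranded by primer extension, on fresh or once-stripped slides. Bound protein was detected with fluorescent anti-GST, and scans were normalised with masliner. Each ungapped eight-base word, pooled with its reverse complement, received an E-score (modified Wilcoxon-Mann-Whitney statistic) from the Universal PBM Analysis Suite.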
With CAACGACC the “PBM E-score” value was 0.0652.
For GTGGGAAA, the “PBM E-score” value was 0.0405.
With CTCACCCA the “PBM E-score” value was 0.00764.
In the case of CCGGGTAC, the “PBM E-score” value is reported as 0.375.
For TGCTACCA, the “PBM E-score” value was -0.216.
CTACACTC was tested, and the “PBM E-score” value was -0.0924.
TAGCACGA was tested, and the “PBM E-score” value was -0.0924.
For ACCTCTTG, the “PBM E-score” value was 0.0452.
AACCCGAA was tested, and the “PBM E-score” value was 0.387.
CACTCCGG was tested, and the “PBM E-score” value was 0.267.
With CAATCCTG the “PBM E-score” value was -0.213.
With ATGGCTGA the “PBM E-score” value was -0.133.
With CGCCGGAC the “PBM E-score” value was 0.146.
With AATCGAAG the “PBM E-score” value was -0.00187.
With CCGATGCC the “PBM E-score” value was 0.275.
With ATTTGCGG the “PBM E-score” value was 0.194.
With TAGCGAGA the “PBM E-score” value was -0.15.
AGCCTAGC was tested, and the “PBM E-score” value was 0.014.
In the case of AACCCTCT, the “PBM E-score” value is reported as -0.311.
For CCGCGTCA, the “PBM E-score” value was 0.0442.
With AGACCCGA the “PBM E-score” value was 0.419.
In the case of GAGGTCCC, the “PBM E-score” value is reported as 0.112.
For ATATTACC, the “PBM E-score” value was 0.00212.
In the case of AATTATCG, the “PBM E-score” value is reported as 0.0106.
TGCGCACA was tested, and the “PBM E-score” value was -0.0208.
TACTAGTA was tested, and the “PBM E-score” value was -0.0719.
In the case of AATATAGC, the “PBM E-score” value is reported as -0.0498.
With AGAAGAAA the “PBM E-score” value was 0.00687.
In the case of GCTAGCAA, the “PBM E-score” value is reported as -0.0763.
With CGCGGGGC the “PBM E-score” value was 0.173.
GAGTTCGA was tested, and the “PBM E-score” value was -0.0351.
In the case of AATCGGGG, the “PBM E-score” value is reported as 0.229.
GCTCTCGA was tested, and the “PBM E-score” value was -0.314.
ACATAGGA was tested, and the “PBM E-score” value was -0.114.
In the case of ACTAGAGC, the “PBM E-score” value is reported as -0.272.
CAGCCGCC was tested, and the “PBM E-score” value was 0.234.
In the case of AACGGCGT, the “PBM E-score” value is reported as -0.0427.
With CGACTTAG the “PBM E-score” value was 0.0271.
With AGTACGAG the “PBM E-score” value was 0.0759.
GCTAACTA was tested, and the “PBM E-score” value was 0.00043.
GCCCTAAA was tested, and the “PBM E-score” value was -0.273.
With ACTCTTCG the “PBM E-score” value was 0.0611.
In the case of GCCCCTTA, the “PBM E-score” value is reported as -0.0795.
With ACTAACAT the “PBM E-score” value was 0.0255.
ACCAAACG was tested, and the “PBM E-score” value was -0.136.
ACTCCAGT was tested, and the “PBM E-score” value was -0.173.
For GAGTTTAC, the “PBM E-score” value was 0.22.
CTACTGTC was tested, and the “PBM E-score” value was -0.141.
With CGCGACTC the “PBM E-score” value was -0.0117.
With TATAGAGA the “PBM E-score” value was -0.308.
For CGTGACAC, the “PBM E-score” value was 0.0877.
AGCAGATG was tested, and the “PBM E-score” value was -0.381.
For CCATTTCA, the “PBM E-score” value was -0.422.
With GCAACGAC the “PBM E-score” value was 0.0391.
CTCATGTA was tested, and the “PBM E-score” value was 0.00334.
In the case of AATCGAAA, the “PBM E-score” value is reported as -0.0544.
With AAAGCGGG the “PBM E-score” value was -0.0396.
CAAGAGTA was tested, and the “PBM E-score” value was -0.0811.
CCGACTCA was tested, and the “PBM E-score” value was 0.245.
AGTTTGTA was tested, and the “PBM E-score” value was -0.0234.
In the case of CGATCGGA, the “PBM E-score” value is reported as 0.322.
For GAGACCAC, the “PBM E-score” value was -0.15.
For ATACCAGC, the “PBM E-score” value was -0.121.
In the case of AGGTTGAT, the “PBM E-score” value is reported as -0.173.
In the case of CGTATTCA, the “PBM E-score” value is reported as -0.0809.
For ATATCGAC, the “PBM E-score” value was -0.0133.
CGATTACG was tested, and the “PBM E-score” value was -0.0587.
For ATTTGAAG, the “PBM E-score” value was -0.006.
For GACCTACC, the “PBM E-score” value was -0.0914.
For CGTAGAAA, the “PBM E-score” value was 0.0457.
With GAAACTTA the “PBM E-score” value was 0.00294.
With CAGTCGCC the “PBM E-score” value was -0.0528.
For TGAACCCA, the “PBM E-score” value was -0.137.
For AGTTTTTA, the “PBM E-score” value was -0.166.
For AGATTCAT, the “PBM E-score” value was -0.129.
In the case of AGGAAGCA, the “PBM E-score” value is reported as -0.109.
CAAGTGGA was tested, and the “PBM E-score” value was -0.165.
With CCTGAGGA the “PBM E-score” value was -0.142.
For AGCCGGAT, the “PBM E-score” value was 0.396.
CGTACTAC was tested, and the “PBM E-score” value was 0.0682.
CACAACAA was tested, and the “PBM E-score” value was -0.101.
With AATCTGGT the “PBM E-score” value was 0.106.
With AAACTTTA the “PBM E-score” value was -0.0852.
In the case of AAGTATTA, the “PBM E-score” value is reported as -0.128.
GACCAAAC was tested, and the “PBM E-score” value was 0.0124.
In the case of GCTCAGCA, the “PBM E-score” value is reported as -0.172.
For TAGTCCGA, the “PBM E-score” value was 0.296.
For ACACCCGC, the “PBM E-score” value was 0.164.
For ACCCCTAC, the “PBM E-score” value was -0.188.
For AATAGGTG, the “PBM E-score” value was -0.0948.
With AGCCCTAT the “PBM E-score” value was -0.192.
CTTACACC was tested, and the “PBM E-score” value was -0.17.
In the case of AAAAACAT, the “PBM E-score” value is reported as -0.154.
With CTTGGACA the “PBM E-score” value was -0.0873.
GAGGATCA was tested, and the “PBM E-score” value was -0.15.
CGAGCAGC was tested, and the “PBM E-score” value was 0.15.
In the case of AATTTAGT, the “PBM E-score” value is reported as -0.0763.
For AGATGGAA, the “PBM E-score” value was 0.106.
TGCGGCCA was tested, and the “PBM E-score” value was -0.173.
With GTGGTTGA the “PBM E-score” value was -0.148.
With CCAAATGG the “PBM E-score” value was -0.0447.
In the case of CGGTTCGC, the “PBM E-score” value is reported as 0.0552.
For AAGGCGTA, the “PBM E-score” value was -0.25.
ATAGGCTG was tested, and the “PBM E-score” value was -0.11.
AGTCAGGG was tested, and the “PBM E-score” value was -0.377.
With ACTATGTC the “PBM E-score” value was -0.108.
For AGCCTTGC, the “PBM E-score” value was -0.0915.
With ACGTAGGG the “PBM E-score” value was -0.275.
With GCTTCGAC the “PBM E-score” value was -0.103.
For CGGTCGTC, the “PBM E-score” value was 0.0906.
In the case of ACCATGGT, the “PBM E-score” value is reported as -0.278.
With CCCCTTTA the “PBM E-score” value was -0.245.
In the case of ACTCTGAG, the “PBM E-score” value is reported as -0.05.
With GAGAACCA the “PBM E-score” value was -0.127.
For ATACTCTC, the “PBM E-score” value was -0.136.
With CCCCCACC the “PBM E-score” value was -0.238.
In the case of CACGGGAA, the “PBM E-score” value is reported as 0.276.
In the case of CCCAGACG, the “PBM E-score” value is reported as -0.17.
For CCTAGGTA, the “PBM E-score” value was -0.00105.
AGGCTCAG was tested, and the “PBM E-score” value was -0.347.
With GGCGGAAA the “PBM E-score” value was 0.277.
In the case of ATACCCCC, the “PBM E-score” value is reported as 0.0757.
In the case of CGGGAAAC, the “PBM E-score” value is reported as 0.357.
For ATCGTCCG, the “PBM E-score” value was 0.233.
In the case of AAATTCAT, the “PBM E-score” value is reported as -0.0912.
In the case of CACCCGTA, the “PBM E-score” value is reported as 0.204.
For ACTTCATG, the “PBM E-score” value was -0.153.
For AACAGTTA, the “PBM E-score” value was 0.0464.
CCGCGAAC was tested, and the “PBM E-score” value was 0.145.
With AGAGGAGC the “PBM E-score” value was -0.196.
With ACGCGCCG the “PBM E-score” value was 0.217.
In the case of AATCCATG, the “PBM E-score” value is reported as -0.139.
With CTCCCATA the “PBM E-score” value was -0.109.
With ATCTCTTG the “PBM E-score” value was -0.0969.
With GAGGGAAA the “PBM E-score” value was -0.248.
In the case of GCTACGCC, the “PBM E-score” value is reported as -0.239.
AGGGCACT was tested, and the “PBM E-score” value was -0.187.
CCGTAACC was tested, and the “PBM E-score” value was 0.306.
In the case of ATTGCAGA, the “PBM E-score” value is reported as -0.00181.
With ACAGCCAC the “PBM E-score” value was 0.0308.
In the case of CACCCTGG, the “PBM E-score” value is reported as -0.123.
CCTCATGC was tested, and the “PBM E-score” value was -0.199.
GGACTGTA was tested, and the “PBM E-score” value was -0.0624.
ACATCGCT was tested, and the “PBM E-score” value was -0.103.
With CGGCAAAC the “PBM E-score” value was 0.354.
With ACTCGGGG the “PBM E-score” value was 0.286.
In the case of AGGTTCCA, the “PBM E-score” value is reported as 0.0324.
With AGGCAGAT the “PBM E-score” value was -0.0986.
CCTCCAGA was tested, and the “PBM E-score” value was -0.0604.
AATGCGGT was tested, and the “PBM E-score” value was 0.0478.
GGACCACA was tested, and the “PBM E-score” value was 0.0635.
In the case of CGTTTTAG, the “PBM E-score” value is reported as -0.0603.
ACGAAGTA was tested, and the “PBM E-score” value was -0.0487.
For GCTCAGGA, the “PBM E-score” value was -0.243.
For AAAGTGTT, the “PBM E-score” value was 0.146.
With TAGAACGA the “PBM E-score” value was -0.139.
ACTCACCC was tested, and the “PBM E-score” value was 0.106.
ACTCCGCC was tested, and the “PBM E-score” value was 0.206.
ACGACAGG was tested, and the “PBM E-score” value was -0.18.
AATATGTA was tested, and the “PBM E-score” value was -0.0602.
With AGGTTCGC the “PBM E-score” value was 0.0812.
CAAGTGAA was tested, and the “PBM E-score” value was -0.0797.
With TGAACGAA the “PBM E-score” value was -0.263.
For ATACACCC, the “PBM E-score” value was 0.236.
For CATCCCTC, the “PBM E-score” value was -0.0859.
ATCATTGG was tested, and the “PBM E-score” value was -0.267.
In the case of GGAGTCCA, the “PBM E-score” value is reported as -0.00968.
For TAATTAAA, the “PBM E-score” value was -0.0457.
In the case of TAAATGCA, the “PBM E-score” value is reported as -0.016.
In the case of AGTCAGAG, the “PBM E-score” value is reported as -0.252.
For TAATCGCA, the “PBM E-score” value was -0.138.
For AGCGTTGC, the “PBM E-score” value was 0.0755.
